In the supplement of paper PMC10670038:
Several values for one entry are separate records, joined by “and”; a condition that tells them apart may be missing. Identical values can stand only once. Counter-ions that a name gives are not always drawn. ± gives the standard deviation of the averaged measurements. The full ranking holds about 2,000 compounds; the median of “relative cell viability vs DMSO, compound alone” is about 1.1, and the lowest 2% start at about 0.29. This is one part of the list.

What follows are molecules tested on TE10 (assay: relative cell viability vs DMSO, compound alone (fraction); TE10 is an esophageal squamous carcinoma line; higher = less cytotoxic). Details: 2 µM; 48 h.
Procedure: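 TE10 ESCC cells (1,000/well, 384-well plates) were treated with Selleck bioactive library compounds at 2 uM alone for 48 h. Viability was read by CellTiter-Glo and expressed relative to DMSO wells. Two technical replicates (A, B).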

SMILES	relative cell viability
COc1ccc(C2CNC(=O)C2)cc1OC1CCCC1 (stereo not drawn) [Rolipram]	1.11 ± 0.14
COc1ccc(C2CNC(=O)C2)cc1OC1CCCC1 (stereo not drawn) [S- (+)-Rolipram]	1.088 ± 0.0016
O=c1c(O)c(-c2ccc(O)cc2O)oc2cc(O)cc(O)c12 [Morin Hydrate]	1.09 ± 0.023
O=c1oc2ccccc2c(O)c1Cc1c(O)c2ccccc2oc1=O [Dicoumarol]	1.06 ± 0.02
CS(=O)(=O)N1CCc2c(-c3cnc(N)nc3)nc(N3CCOCC3)nc21	0.379 ± 0.015
Cc1nc(=O)c2cc(CN(C)c3ccc(C(=O)N[C@@H](CCC(=O)O)C(=O)O)s3)ccc2[nH]1 [Raltitrexed]	1.07 ± 0.086
COC(=O)CCSCc1ccc(-c2onc(C)c2NC(=O)OC(C)c2ccccc2Cl)cc1 (stereo not drawn)	1.045 ± 0.0031
CC(/C=C1\SC(=S)N(CC(=O)O)C1=O)=C\c1ccccc1 [Epalrestat]	0.815 ± 0.045
c1ccc(CNc2nc(NCc3ccccc3)c3ccccc3n2)cc1	1.01 ± 0.073
O=C1c2ccccc2C(=O)c2c1ccc(O)c2O [Alizarin]	1.0853 ± 0.001
C[C@H](CCC(=O)O)[C@H]1CC[C@H]2[C@@H]3[C@H](O)C[C@@H]4C[C@H](O)CC[C@]4(C)[C@H]3CC[C@]12C [Chenodeoxycholic Acid]	0.915 ± 0.096
CC(C)CC(CC(=O)NO)C(=O)N[C@@H](Cc1ccc2ccccc2c1)C(=O)N[C@@H](C)C(=O)NCCN (stereo partly drawn)	1.04 ± 0.077
C=CC(=O)Nc1cccc(Oc2nc(Nc3ccc(N4CCN(C)CC4)cc3OC)ncc2Cl)c1	1.1468 ± 0.00085
O=C(/C=C/c1ccc(O)c(O)c1)OCCc1ccccc1 [Caffeic Acid Phenethyl Ester]	1.06 ± 0.038
COc1ccc([C@@H]2CC(=O)c3c(O)cc(O[C@@H]4O[C@H](CO)[C@@H](O)[C@H](O)[C@H]4O[C@@H]4O[C@@H](C)[C@H](O)[C@@H](O)[C@H]4O)cc3O2)cc1O [Neohesperidin]	1.17 ± 0.037
CC(=O)OCC(CCn1cnc2cnc(N)nc21)COC(C)=O [Famciclovir]	1.03 ± 0.093
CC[C@H](C)C(=O)O[C@H]1CCC=C2C=C[C@H](C)[C@H](CC[C@@H]3C[C@@H](O)CC(=O)O3)[C@H]21 [Mevastatin]	1.11 ± 0.022
Nc1cc(C(Cl)=C(Cl)Cl)c(S(N)(=O)=O)cc1S(N)(=O)=O [Clorsulon]	1.12 ± 0.092
Cc1ccccc1CN1C2=NCCN2C(=O)C2=C1CCN(Cc1ccccc1)C2 [TIC10 Analogue]	1.13 ± 0.054

SMILES	relative cell viability
C[C@@H]1CCN(C(=O)CC#N)C[C@@H]1N(C)c1ncnc2[nH]ccc12	1.1 and 1.05
C#CC[C@H](c1nc2cc(Cl)ccc2c(=O)n1Nc1ccccc1)N(CCCN)C(=O)c1cccc(Cl)c1F	0.982 ± 0.051
CCOC(=O)Nc1cc(-c2ccc(C)c(NS(C)(=O)=O)c2)nn2c(C)nnc12 [Bromosporine]	0.921 ± 0.015
C[C@@H]1COCCN1c1cc(C2(S(C)(=O)=O)CC2)nc(-c2cccc3[nH]ccc23)n1	0.71 ± 0.039
O=c1[nH]c(=O)n(C2CCCO2)cc1F (stereo not drawn)	1.29 ± 0.056
Cc1cc2c(F)c(Oc3ncnn4cc(OC[C@@H](C)OC(=O)[C@H](C)N)c(C)c34)ccc2[nH]1	0.998 ± 0.014
COc1ccc([C@]2(C#N)CC[C@@H](C(=O)O)CC2)cc1OC1CCCC1 [Cilomilast]	0.952 ± 0.058
O=C(NCCO)c1cccc(-c2cc(Nc3ccc(OC(F)(F)F)cc3)ncn2)c1	1.2 ± 0.053
COCC[n+]1c2c(n(Cc3cnccn3)c1C)C(=O)c1ccccc1C2=O [YM155 (Sepantronium Bromide)]	0.0556 ± 0.0047
O=S(=O)(O)NC1CCCCC1 [Cyclamic  acid]	1.18 ± 0.022
N=C(N)NC(=N)N1CCOCC1 [Moroxydine HCl]	1.19 ± 0.017
CC(=O)Oc1cccc2c1C(=O)c1c(OC(C)=O)cc(C(=O)O)cc1C2=O [Diacerein]	1.11 ± 0.023
CCN(CC)Cc1ccc2cc(COC(=O)Nc3ccc(C(=O)NO)cc3)ccc2c1 [Givinostat (ITF2357)]	0.306 ± 0.036
CC(C)(C#N)c1ccc(N2C(=O)OCc3cnc4ccc(-c5cnc6ccccc6c5)cc4c32)cc1	0.71 ± 0.068
CC(C)C[C@@H](C=O)NC(=O)[C@H](CC(C)C)NC(=O)[C@H](CC(C)C)NC(=O)OCc1ccccc1	0.0786 ± 0.0013
CN(C)CCc1c[nH]c2ccc(Cn3cncn3)cc12 [Rizatriptan Benzoate]	1.031 ± 0.0057
O=C(c1ccc(C(=O)N2CCC(N3CCCC3)CC2)c(Nc2ccccc2)c1)N1CCC(N2CCCC2)CC1	1.15 ± 0.046
OC[C@H]1O[C@@H](Oc2ccc(O)cc2)[C@H](O)[C@@H](O)[C@@H]1O [Arbutin]	1.14 ± 0.043
CNc1nc(Nc2cnn(C3CCN(C4COC4)CC3F)c2Cl)ncc1C(F)(F)F (stereo not drawn)	1.12 ± 0.037
